Drawing on paper PMC11952801, this text covers binding for 5 molecules.

By UniProt entry, the sequences of proteins in these tests, tags left out.
UniProt Q9LTB8: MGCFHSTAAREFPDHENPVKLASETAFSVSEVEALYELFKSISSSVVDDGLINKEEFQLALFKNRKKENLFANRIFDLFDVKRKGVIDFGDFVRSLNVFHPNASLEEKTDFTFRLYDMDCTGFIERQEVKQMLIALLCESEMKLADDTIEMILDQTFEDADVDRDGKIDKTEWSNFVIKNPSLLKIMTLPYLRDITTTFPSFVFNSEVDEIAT

These are yes or no findings as the source states them, for the method shown. In cells and extracts the contact can be indirect. Some binding calls cover weakened binding; strength is not graded here. Tags and fused reporters may be left off the sequences shown.

In experiment [1] the target is T1, P2K1-nYFP (Arabidopsis thaliana) (UniProt Q9LSR8).
T1 sequence: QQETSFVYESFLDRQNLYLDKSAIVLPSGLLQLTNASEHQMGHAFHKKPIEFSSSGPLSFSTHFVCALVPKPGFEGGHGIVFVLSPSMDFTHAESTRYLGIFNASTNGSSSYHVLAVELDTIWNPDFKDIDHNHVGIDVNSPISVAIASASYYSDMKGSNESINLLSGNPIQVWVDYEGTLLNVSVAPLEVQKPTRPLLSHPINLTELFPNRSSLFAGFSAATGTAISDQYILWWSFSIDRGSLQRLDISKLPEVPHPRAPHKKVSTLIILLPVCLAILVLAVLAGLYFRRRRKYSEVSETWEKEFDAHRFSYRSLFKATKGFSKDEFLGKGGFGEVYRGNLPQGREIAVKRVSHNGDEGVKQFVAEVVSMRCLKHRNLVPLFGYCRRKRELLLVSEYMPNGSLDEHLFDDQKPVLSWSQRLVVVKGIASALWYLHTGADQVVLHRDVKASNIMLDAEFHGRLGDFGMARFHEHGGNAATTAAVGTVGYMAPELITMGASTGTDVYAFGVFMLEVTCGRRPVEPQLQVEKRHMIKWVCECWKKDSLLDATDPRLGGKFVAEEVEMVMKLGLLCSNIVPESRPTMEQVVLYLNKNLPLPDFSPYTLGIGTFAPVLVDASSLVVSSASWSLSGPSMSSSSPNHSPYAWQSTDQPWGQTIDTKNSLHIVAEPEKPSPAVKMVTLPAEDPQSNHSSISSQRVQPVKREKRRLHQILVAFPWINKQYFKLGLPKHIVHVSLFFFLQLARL
Nature of the experiment: split reporter; BiFC; nYFP and cYFP fusions in Arabidopsis protoplasts (PEG-mediated transformation), 21 °C for 24 h in the dark; YFP fluorescence by microscopy, FM4-64 as plasma membrane marker.

The target in experiment [2] is T2, P2K1-nLUC (Arabidopsis thaliana) (UniProt Q9LSR8).
T2 sequence: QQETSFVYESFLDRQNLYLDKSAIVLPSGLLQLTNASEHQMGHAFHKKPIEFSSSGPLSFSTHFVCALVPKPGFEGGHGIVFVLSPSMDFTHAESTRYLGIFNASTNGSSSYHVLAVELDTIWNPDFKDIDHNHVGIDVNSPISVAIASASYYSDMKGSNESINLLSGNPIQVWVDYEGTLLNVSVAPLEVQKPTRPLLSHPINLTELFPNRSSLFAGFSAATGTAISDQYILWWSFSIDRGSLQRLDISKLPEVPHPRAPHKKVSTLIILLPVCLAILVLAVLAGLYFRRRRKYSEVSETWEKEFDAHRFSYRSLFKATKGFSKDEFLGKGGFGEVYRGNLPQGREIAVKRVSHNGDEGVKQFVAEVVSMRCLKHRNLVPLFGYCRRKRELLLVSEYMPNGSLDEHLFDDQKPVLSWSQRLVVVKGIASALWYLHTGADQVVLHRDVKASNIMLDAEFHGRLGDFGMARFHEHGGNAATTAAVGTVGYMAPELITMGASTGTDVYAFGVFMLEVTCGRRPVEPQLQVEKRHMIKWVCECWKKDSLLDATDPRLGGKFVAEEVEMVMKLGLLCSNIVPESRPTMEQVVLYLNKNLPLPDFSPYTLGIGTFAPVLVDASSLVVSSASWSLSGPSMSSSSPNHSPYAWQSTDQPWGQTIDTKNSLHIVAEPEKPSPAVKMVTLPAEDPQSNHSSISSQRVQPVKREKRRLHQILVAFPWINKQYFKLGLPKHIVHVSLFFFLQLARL
The experiment can be described thus: split reporter; split-luciferase complementation imaging (LCI); nLUC and cLUC fusions driven by the CaMV 35S promoter, co-infiltrated into 4-week-old N. benthamiana leaves; 3 days at 28 °C; 5 mM D-luciferin sprayed; luminescence by CCD camera; also with added ATP.

Regarding CBL9-cYFP (from UniProt Q9LTB8 1-213), the binding result in experiment [1] was “binds”.

In the case of “CBL9 (split-luciferase fusion) (from UniProt Q9LTB8 1-213)”, the binding entry in experiment [2] is “binds”.

B1: GPA1 (split-luciferase fusion) (protein, UniProt P18064 1-383)
chain: MGLLCSRSRHHTEDTDENTQAAEIERRIEQEAKAEKHIRKLLLLGAGESGKSTIFKQIKLLFQTGFDEGELKSYVPVIHANVYQTIKLLHDGTKEFAQNETDSAKYMLSSESIAIGEKLSEIGGRLDYPRLTKDIAEGIETLWKDPAIQETCARGNELQVPDCTKYLMENLKRLSDINYIPTKEDVLYARVRTTGVVEIQFSPVGENKKSGEVYRLFDVGGQRNERRKWIHLFEGVTAVIFCAAISEYDQTLFEDEQKNRMMETKELFDWVLKQPCFEKTSFMLFLNKFDIFEKKVLDVPLNVCEWFRDYQPVSSGKQEIEHAYEFVKKKFEELYYQNTAPDRVDRVFKIYRTTALDQKLVKKTFKLVDETLRRRNLLEAGLL
With B1, the binding result in experiment [2] was “binds”.

B2: MKK3-cYFP (enzyme, UniProt O80396 1-520)
chain: MAALEELKKKLSPLFDAEKGFSSSSSLDPNDSYLLSDGGTVNLLSRSYGVYNFNELGLQKCTSSHVDESESSETTYQCASHEMRVFGAIGSGASSVVQRAIHIPNHRILALKKINIFEREKRQQLLTEIRTLCEAPCHEGLVDFHGAFYSPDSGQISIALEYMNGGSLADILKVTKKIPEPVLSSLFHKLLQGLSYLHGVRHLVHRDIKPANLLINLKGEPKITDFGISAGLENSMAMCATFVGTVTYMSPERIRNDSYSYPADIWSLGLALFECGTGEFPYIANEGPVNLMLQILDDPSPTPPKQEFSPEFCSFIDACLQKDPDARPTADQLLSHPFITKHEKERVDLATFVQSIFDPTQRLKDLADMLTIHYYSLFDGFDDLWHHAKSLYTETSVFSFSGKHNTGSTEIFSALSDIRNTLTGDLPSEKLVHVVEKLHCKPCGSGGVIIRAVGSFIVGNQFLICGDGVQAEGLPSFKDLGFDVASRRVGRFQEQFVVESGDLIGKYFLAKQELYITNLD
Regarding B2, the binding entry in experiment [1] is “no binding”.

B3: ATL6 (split-luciferase fusion) (protein, UniProt Q8RXX9 30-398)
chain: QSQPGPTNQPYNYGRLSPAMAVIVVILIAALFFMGFFSIYFRHCSGVPDAGVSPAGGARSRATVNAAARGLDVSVVETFPTFLYSDVKTQKLGKGELECAICLNEFEDDETLRLLPKCDHVFHPHCIDAWLEAHVTCPVCRANLAEQVAEGESVEPGGTEPDLELQQVVVNPEPVVTAPVPEQLVTSEVDSRRLPGVPVDLKRVKFSRSHTTGHSVVQPGECTERFTLRLPEDVRKRIMKDWKLNRTNSLLVLPRGGSSRRGKPIDRSRARSDRWLFRKTPSFLWRSRDDGSIRLGATGSVRASAVPNSTGSDSVRAGDRWAFLRNASFLWRNSSVHVPRGGVNKDGEGTSVKSTGASGSTSGSVRLPV
Turning to B3, the binding result in experiment [2] is on record as “no binding”.
